The text below walks through data of the antibiotic and cytotoxicity screens of Wong et al. (2023).

One assay has as its system HSkMC. Description: cytotoxicity call (relative viability < 0.9). To be noted: 10 µM.
The subject of another assay is HepG2. Put plainly: cytotoxicity call (relative viability < 0.9). To be noted: 10 µM.
For the next assay, the system named is S. aureus RN4220. Put plainly: growth inhibition call (relative growth <= 0.2). To be noted: 50 µM.

Each structure is given as a SMILES string. The list shows a part of the results.

As to `C[C@H]1CN([C@@H](C)CO)C(=O)Cc2cc(NS(=O)(=O)c3cn(C)cn3)ccc2O[C@@H]1CN(C)CC1CCCCC1`, the cytotoxicity call in the assay with HSkMC and with HepG2 was “inactive” each time. Moreover, the growth inhibition call with S. aureus RN4220 is “inactive”.
As for `C[C@@H]1CN([C@@H](C)CO)C(=O)Cc2cc(NS(=O)(=O)c3ccc(Cl)cc3)ccc2O[C@H]1CN(C)S(C)(=O)=O`, the cytotoxicity call in the assay on HSkMC and in the assay on HepG2 was “inactive” in each case. In addition, the growth inhibition call with S. aureus RN4220 is “inactive”.
For `COCCOC(=O)N1C(=O)[C@@]2(c3ccccc31)[C@H](c1ccc(OCCO)cc1)N1[C@H](c3ccccc3)[C@H](c3ccccc3)OC(=O)[C@H]1[C@@H]2C(=O)Nc1nc2ccccc2s1`, the cytotoxicity call with HSkMC and with HepG2 was “inactive” in each case. Besides, the growth inhibition call in the assay on S. aureus RN4220 was “inactive”.
`CN1CC(=O)N(c2cnn(C)c2)C[C@]12CCN(C(=O)c1cnccn1)C2`: the cytotoxicity call in the assay with HSkMC and in the assay on HepG2 was “inactive” throughout. In addition, in the assay with S. aureus RN4220, the growth inhibition call was “inactive”.
With `C[C@H]1CN([C@@H](C)CO)C(=O)c2cccc(NC(=O)C3CCCCC3)c2O[C@@H]1CN(C)Cc1ccc(-c2ccccc2)cc1`, the cytotoxicity call with HSkMC and in the assay on HepG2 was “inactive” in each case. Moreover, the growth inhibition call with S. aureus RN4220 is “inactive”.
Regarding `C[C@@H]1O[C@@H](O[C@H]2[C@H](O[C@H]3[C@H](O)[C@@H](C(=O)O)O[C@@H](O[C@H]4CC[C@]5(C)[C@H]6CC[C@]78OC[C@@]9(CCC(C)(C)C[C@@H]97)[C@H](O)C[C@@]8(C)[C@]6(C)CC[C@H]5C4(C)C)[C@@H]3OC3O[C@H](CO)[C@@H](O)[C@H](O)[C@H]3O)O[C@H](CO)[C@H](O)[C@@H]2O)[C@H](O)[C@H](O)[C@H]1O` (stereo partly specified), the cytotoxicity call in the assay on HSkMC and in the assay on HepG2 was “active” in each case. Besides, in the assay on S. aureus RN4220, the growth inhibition call is “inactive”.
For the compound `C[C@H]1CN([C@@H](C)CO)C(=O)c2cc(NC(=O)CCN3CCOCC3)ccc2O[C@@H]1CN(C)Cc1ccccc1`, the cytotoxicity call in the assay on HSkMC and in the assay on HepG2 was “inactive” each time. For the same compound, the growth inhibition call in the assay on S. aureus RN4220 was “inactive”.
In the case of `C[C@H](CO)N1C[C@H](C)[C@@H](CN(C)C(=O)Nc2ccccc2)Oc2cc(C#CC3(O)CCCC3)ccc2S1(=O)=O`, the cytotoxicity call in the assay on HSkMC and in the assay on HepG2 was “inactive” each time. In the assay with S. aureus RN4220, the growth inhibition call is “inactive”.
As to `C[C@@H]1CN([C@H](C)CO)C(=O)Cc2cc(NS(=O)(=O)c3ccc(F)cc3)ccc2O[C@@H]1CN(C)C(=O)Nc1cccc2ccccc12`, the cytotoxicity call in the assay on HSkMC and with HepG2 was “inactive” throughout. Also, in the assay with S. aureus RN4220, the growth inhibition call was “inactive”.
For the compound `C[C@@H]1CN([C@@H](C)CO)C(=O)c2cc(NC(=O)Cc3cn(C)c4ccccc34)ccc2O[C@@H]1CN(C)Cc1ccc(Oc2ccccc2)cc1`, the cytotoxicity call in the assay on HSkMC and in the assay with HepG2 was “inactive” throughout. The growth inhibition call in the assay with S. aureus RN4220 is “inactive”.
Turning to `O=C(C[C@@H]1CC[C@@H](NC(=O)C2CC2)[C@@H](CO)O1)NCCCN1CCOCC1`, the cytotoxicity call with HSkMC and with HepG2 was “inactive” in each case. Moreover, the growth inhibition call with S. aureus RN4220 is “inactive”.
With `Cn1cnc(S(=O)(=O)N2C[C@H](O)COC[C@H]3O[C@@H](CC(=O)NCc4cccc(F)c4)CC[C@@H]32)c1`, the cytotoxicity call in the assay with HSkMC and in the assay on HepG2 was “inactive” throughout. Moreover, the growth inhibition call with S. aureus RN4220 was “inactive”.
As for `C[C@H]1CN([C@@H](C)CO)C(=O)c2cccc(NC(=O)c3ccc(-c4nccs4)cc3)c2O[C@@H]1CN(C)C(=O)Nc1ccccc1`, the cytotoxicity call in the assay with HSkMC and with HepG2 was “inactive” each time. Moreover, the growth inhibition call with S. aureus RN4220 was “inactive”.
`C[C@@H]1CN([C@@H](C)CO)C(=O)Cc2cc(NS(=O)(=O)c3ccccc3)ccc2O[C@@H]1CN(C)CC1CC1`: the cytotoxicity call in the assay with HSkMC and with HepG2 was “inactive” in each case. In the assay with S. aureus RN4220, the growth inhibition call is “inactive”.
In the case of `CN(CC(=O)O)C1CCCC1`, the cytotoxicity call in the assay on HSkMC and in the assay on HepG2 was “inactive” each time. Besides, the growth inhibition call in the assay with S. aureus RN4220 is “inactive”.
As to `Cc1noc(C)c1S(=O)(=O)Nc1ccc2c(c1)CC(=O)N([C@H](C)CO)C[C@H](C)[C@@H](CN(C)S(=O)(=O)c1cn(C)cn1)O2`, the cytotoxicity call in the assay with HSkMC and in the assay with HepG2 was “inactive” each time. For the same compound, the growth inhibition call in the assay on S. aureus RN4220 is “inactive”.
For the compound `Nc1ccn([C@@H]2CS[C@H](CO)O2)c(=O)n1`, the cytotoxicity call in the assay on HSkMC and in the assay with HepG2 was “inactive” each time. In addition, in the assay on S. aureus RN4220, the growth inhibition call is “inactive”.
For `O=C(NCCCN1CCCC1=O)c1cccnc1`, the cytotoxicity call in the assay on HSkMC and in the assay with HepG2 was “inactive” each time. The growth inhibition call in the assay with S. aureus RN4220 was “inactive”.
`Cc1cn(C2C=CC(CO)O2)c(=O)[nH]c1=O` (stereo unspecified): the cytotoxicity call in the assay with HSkMC and with HepG2 was “inactive” throughout. For the same compound, the growth inhibition call in the assay with S. aureus RN4220 is “inactive”.
In the case of `C[C@@H]1CN([C@@H](C)CO)C(=O)c2cc(NS(=O)(=O)c3ccccc3)ccc2O[C@H]1CN(C)S(C)(=O)=O`, the cytotoxicity call with HSkMC and in the assay with HepG2 was “inactive” throughout. For the same compound, the growth inhibition call in the assay on S. aureus RN4220 was “inactive”.
Turning to `C[C@@H]1CN([C@@H](C)CO)C(=O)c2cc(NS(=O)(=O)c3ccc(Cl)cc3)ccc2O[C@@H]1CN(C)Cc1ccc(-c2ccccc2)cc1`, the cytotoxicity call in the assay with HSkMC and in the assay on HepG2 was “active” each time. The growth inhibition call in the assay on S. aureus RN4220 was “inactive”.
In the case of `COc1ccc(CN(C)C[C@H]2Oc3c(NC(=O)CCCCCC(=O)Nc4ccccc4N)cccc3C(=O)N([C@H](C)CO)C[C@@H]2C)cc1`, the cytotoxicity call in the assay with HSkMC and in the assay on HepG2 was “inactive” throughout. Besides, the growth inhibition call in the assay on S. aureus RN4220 was “inactive”.
As for `Cc1ccc(S(=O)(=O)Nc2ccc3c(c2)CC(=O)N([C@@H](C)CO)C[C@@H](C)[C@H](CN(C)S(C)(=O)=O)O3)cc1`, the cytotoxicity call in the assay with HSkMC and in the assay on HepG2 was “inactive” each time. In addition, the growth inhibition call in the assay on S. aureus RN4220 is “inactive”.
For the compound `COc1oc(C(=O)NC2CCCCC2)c(-c2ccc(Cl)cc2)c1S(=O)(=O)c1cccc(Cl)c1`, the cytotoxicity call with HSkMC and in the assay on HepG2 was “inactive” in each case. Also, the growth inhibition call with S. aureus RN4220 is “inactive”.
Consider `C[C@@H]1CN([C@H](C)CO)C(=O)c2cccc(NC(=O)Nc3ccc(C(F)(F)F)cc3)c2O[C@H]1CN(C)Cc1ccc(Oc2ccccc2)cc1`, for which, in the assay on HSkMC, the cytotoxicity call was “active”. The cytotoxicity call in the assay with HepG2 was “inactive”. Moreover, the growth inhibition call in the assay on S. aureus RN4220 was “inactive”.
In the case of `NC1=NC(=O)C[C@H](Cc2ccccc2)N1`, the cytotoxicity call in the assay with HSkMC and with HepG2 was “inactive” in each case. Also, the growth inhibition call in the assay with S. aureus RN4220 was “inactive”.
Take `O=C(CCCCCCC(=O)Nc1ccc([C@H]2C[C@H](c3ccccc3)O[C@H](c3ccccc3)O2)cc1)NO`: the cytotoxicity call in the assay on HSkMC (human skeletal muscle cells) and with HepG2 was “inactive” throughout. The growth inhibition call in the assay on S. aureus RN4220 is “inactive”.
